Data taken from the supplement of paper PMC4967469.
Lines with a small IC50 respond at low doses; a fit beyond the top or the lowest dose is shown as a bound at that dose. AUC sums up the same curve from the lowest dose to the 256-fold higher top dose; the more sensitive the line, the further below 1. For some of these results: A top dose marked as inferred was calculated from the reported fits. For some of these results: Drugs with an entry number were screened twice under separate entries, and the two screens often disagree.

Assays:
Experiment in all cases: Viability of human cancer cell lines after 72 h of drug (GDSC screen)
AZ628 = compound: Cc1ccc(NC(=O)c2cccc(C(C)(C)C#N)c2)cc1Nc1ccc2ncn(C)c(=O)c2c1 [AZ628]; conditions: top dose 4 µM; top dose inferred
Method: (§1)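 Human cancer cell lines in 384-well plates, medium with 10% serum, drug for 72 h over a 256-fold dose range (nine 2-fold or five 4-fold steps up to the top dose). Adherent lines were fixed and stained with the nucleic acid dye Syto60, suspension lines read with resazurin; signal relative to control wells, capped at 0 and 100%. One two-parameter sigmoid per drug and line, fitted in a mixed model over all curves with the slope shared within a line.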

AZD6244 = compound: Cn1cnc2c(F)c(Nc3ccc(Br)cc3Cl)c(C(=O)NOCCO)cc21 [AZD6244]; conditions: top dose 4 µM; screen: GDSC drug entry 1498; top dose inferred
Method: as §1

AS601245 = compound: N#CC(c1ccnc(NCCc2cccnc2)n1)c1nc2ccccc2s1 [AS601245]; conditions: top dose 8 µM; top dose inferred
Method: as §1

EX-527 = compound: NC(=O)C1CCCc2c1[nH]c1ccc(Cl)cc21 [EX-527]; conditions: top dose 20 µM
Method: as §1

YM201636 = compound: Nc1ccc(C(=O)Nc2cccc(-c3nc(N4CCOCC4)c4oc5ncccc5c4n3)c2)cn1 [YM201636]; conditions: top dose 5.12 µM; top dose inferred
Method: as §1

Row | Cell Line | AUC (AZ628) | IC50 (AZ628) [µM] | AUC (AZD6244) | IC50 (AZD6244) [µM] | AUC (AS601245) | IC50 (AS601245) [µM] | AUC (EX-527) | IC50 (EX-527) [µM] | AUC (YM201636) | IC50 (YM201636) [µM]
1 | 8-MG-BA (glioma, adherent) | 0.883 | 3.81 | 0.928 | > 4 | 0.836 | 4.82 | 0.954 | > 20 | 0.94 | > 5.12
2 | 697 (lymphoblastic leukaemia, suspension) | 0.583 | 0.402 | 0.983 | > 4 | 0.825 | 3.57 | 0.989 | > 20 | 0.774 | 1.62
3 | A3-KAW (B-cell lymphoma, suspension) | 0.935 | > 4 | 0.731 | 0.959 | 0.888 | 5.86 | 0.992 | > 20 | 0.881 | 3.5
4 | A4-Fuk (B-cell lymphoma, suspension) | 0.594 | 0.457 | 0.939 | > 4 | 0.853 | 6.71 | 0.984 | > 20 | 0.912 | > 5.12
5 | A101D (melanoma, adherent) | 0.247 | 0.0388 | 0.534 | 0.316 | 0.645 | 1.39 | 0.978 | > 20 | 0.888 | > 5.12
6 | A253 (head and neck, adherent) | 0.939 | > 4 | 0.954 | > 4 | 0.873 | 7.33 | 0.986 | > 20 | 0.985 | > 5.12
7 | A388 (skin, adherent) | 0.89 | > 4 | 0.904 | > 4 | 0.88 | > 8 | 0.98 | > 20 | 0.935 | > 5.12
8 | ALL-PO (lymphoblastic leukaemia, suspension) | 0.742 | 1.29 | 0.958 | > 4 | 0.683 | 1.68 | 0.962 | > 20 | 0.654 | 0.88
9 | ALL-SIL (T-cell leukaemia, suspension) | 0.398 | 0.137 | 0.982 | > 4 | 0.804 | 3.37 | 0.987 | > 20 | 0.64 | 0.732
10 | AM-38 (glioma, semi-adherent) | 0.949 | > 4 | 0.983 | > 4 | 0.968 | > 8 | 0.987 | > 20 | 0.775 | 2.06
11 | AMO-1 (haematopoietic neoplasm, suspension) | 0.948 | > 4 | 0.932 | > 4 | 0.842 | 4.47 | 0.983 | > 20 | 0.783 | 1.84
12 | ARH-77 (myeloma, suspension) | 0.912 | > 4 | 0.969 | > 4 | 0.904 | > 8 | 0.985 | > 20 | 0.893 | > 5.12
13 | ATN-1 (T-cell lymphoblastic leukaemia, suspension) | 0.984 | > 4 | 0.983 | > 4 | 0.891 | > 8 | 0.979 | > 20 | 0.842 | 3.25
14 | BB30-HNC (head and neck, adherent) | 0.803 | 1.94 | 0.637 | 0.593 | 0.82 | 4.48 | 0.981 | > 20 | 0.914 | > 5.12
15 | BB49-HNC (head and neck, adherent) | 0.522 | 0.294 | 0.347 | 0.0788 | 0.606 | 1.1 | 0.968 | > 20 | 0.863 | > 5.12
16 | BB65-RCC (kidney, adherent) | 0.947 | > 4 | 0.803 | 2.36 | 0.776 | 3.68 | 0.98 | > 20 | 0.956 | > 5.12
17 | BC-1 (B-cell lymphoma, suspension) | 0.956 | > 4 | 0.964 | > 4 | 0.833 | 4.13 | 0.979 | > 20 | 0.864 | 3.43
18 | BE2-M17 (neuroblastoma, adherent) | 0.741 | 1.26 | 0.834 | 2.71 | 0.913 | > 8 | 0.979 | > 20 | 0.984 | > 5.12
19 | BE-13 (lymphoblastic leukaemia, suspension) | 0.69 | 0.819 | 0.986 | > 4 | 0.873 | 6.88 | 0.985 | > 20 | 0.729 | 1.36
